Patent US10299477B2 (priority 2015, dated 2019)

What was measured:
Type in all cases: in vivo
[1] = system: Plasmopara viticola; test: Test Example G: Downy mildew on vine; settings: for Test G (control value class): 250 ppm spray; for Test G control value (downy mildew on vine): 250 ppm spray (2.5 ml/pot), preventive, control value class; for Test G (control value class, downy mildew on vine): 250 ppm, sprayed 2.5 ml/pot before inoculation; for Test G control value: 250 ppm sprayed before inoculation
Description: [Test Example G] Downy Mildew on Vine
Seeds of a test plant (grape variety: Neomuscat) were planted followed by cultivating until three to four first leaves appeared. […] After the sprayed dilutions were dried, a zoosporangia suspension (1-2×10^4 zoosporangia/ml) of Plasmopara viticola was inoculated to the plants by spraying.

[2] = system: Puccinia recondita; test: Test Example E: Brown rust on wheat; settings: for Test E control value (brown rust on wheat): preventive, control value class; for Test E (control value class, brown rust on wheat): in vivo
Description: [Test Example E] Brown Rust on Wheat

[3] = system: Alternaia brassicicola; test: Test Example C: Alternaria sooty spot on cabbage; settings: for Test C (control value class) / Test C control value: Alternaria sooty spot on cabbage; for Test C control value (Alternaria sooty spot on cabbage): preventive, control value class; for Test C (control value class, Alternaria sooty spot on cabbage): in vivo
Description: [Test Example C] Alternaria Sooty Spot on Cabbage
Seeds of a test plant (cabbage variety: Shikidori) were planted followed by cultivating until the cotyledons extended.

[4] = system: Blumeria graminis f sp. hordei; test: Test Example D: Powdery mildew on barley; settings: for Test D control value (powdery mildew on barley): preventive, control value class; for Test D (control value class, powdery mildew on barley): in vivo
Description: [Test Example D] Powdery Mildew on Barley
After the sprayed dilutions were dried, conidia of Blumeria graminis f sp. hordei were inoculated to the plants by shaking off.

[5] = system: Botrytis cinerea; test: Test Example B: Gray mold on tomato; settings: for Test B control value (gray mold on tomato): preventive, control value class; for Test B (control value class, gray mold on tomato): in vivo
Description: [Test Example B] Gray Mold on Tomato
Seeds of a test plant (tomato variety: Oogata Fukuju) were planted followed by cultivating until three to five first leaves (true leaves) appeared.

[6] = downy mildew on vine, Plasmopara viticola, 7-10 days after inoculation
[7] = brown rust on wheat, Puccinia recondita, 250 ppm spray
[8] = powdery mildew on barley, 250 ppm spray
[9] = gray mold on tomato, Botrytis cinerea, 250 ppm spray
[10] = evaluated 7-10 days after inoculation
[11] = Downy mildew on vine, 7-10 days after inoculation
[12] = Downy mildew on vine, 2.5 ml/pot, evaluated 7-10 days after inoculation
[13] = Brown rust on wheat, control value=100{1-(n/3)}
[14] = Powdery mildew on barley, control value=100{1-(n/3)}
[15] = Gray mold on tomato, control value=100{1-(n/3)}

O=c1ccc(-c2cc(Cl)ccc2F)c(-c2c(F)cccc2F)n1CC(F)F [Compound 539]
Test G (control value class) [1, 6]: H (H shows more than 50% of control values) | Test E (control value class) [2, 7]: H (H shows more than 50% of control values) | Test C (control value class) ([3]; 250 ppm spray): H (H shows more than 50% of control values) | Test D (control value class) [4, 8]: H (H shows more than 50% of control values) | Test B (control value class) [5, 9]: H (H shows more than 50% of control values)

O=c1c(Cl)cc(-c2cc(F)cc(F)c2Cl)c(-c2c(F)cccc2F)n1CC(F)F [Compound 556]
Test G (control value class) [1, 6]: L (L shows 50% or less of control values) | Test E (control value class) [2, 7]: H (H shows more than 50% of control values) | Test C (control value class) ([3]; 250 ppm spray): H (H shows more than 50% of control values) | Test D (control value class) [4, 8]: H (H shows more than 50% of control values) | Test B (control value class) [5, 9]: H (H shows more than 50% of control values)

CCn1c(-c2c(F)cccc2F)c(-c2cccc(F)c2Cl)cc(Cl)c1=O [Compound 507]
Test G (control value class) [1, 6]: H (H shows more than 50% of control values) | Test E (control value class) [2, 7]: H (H shows more than 50% of control values) | Test C (control value class) ([3]; 250 ppm spray): H (H shows more than 50% of control values) | Test D (control value class) [4, 8]: H (H shows more than 50% of control values) | Test B (control value class) [5, 9]: H (H shows more than 50% of control values)

CCn1c(-c2c(F)cccc2F)c(-c2cc(OCCC3OCCCO3)ccc2Cl)ccc1=O [Compound 317]
Test G control value (downy mildew on vine) ([1]; 7-10 days after inoculation): L (L shows 50% or less of control values) | Test E control value (brown rust on wheat) ([2]; 250 ppm spray): H (H shows more than 50% of control values) | Test C control value (Alternaria sooty spot on cabbage) ([3]; 250 ppm spray): H (H shows more than 50% of control values) | Test D control value (powdery mildew on barley) ([4]; 250 ppm spray): H (H shows more than 50% of control values) | Test B control value (gray mold on tomato) ([5]; 250 ppm spray): H (H shows more than 50% of control values)

Cn1c(-c2c(F)cccc2F)c(-c2ccc(Br)cc2)ccc1=O [Compound 289]
Test G control value (downy mildew on vine) ([1]; 7-10 days after inoculation): L (L shows 50% or less of control values) | Test E control value (brown rust on wheat) ([2]; 250 ppm spray): H (H shows more than 50% of control values) | Test C control value (Alternaria sooty spot on cabbage) ([3]; 250 ppm spray): H (H shows more than 50% of control values) | Test D control value (powdery mildew on barley) ([4]; 250 ppm spray): H (H shows more than 50% of control values) | Test B control value (gray mold on tomato) ([5]; 250 ppm spray): H (H shows more than 50% of control values)

COc1cc(F)c(-c2c(-c3cc(OC)ccc3Cl)ccc(=O)n2C)c(F)c1 [Compound 721]
Test G (control value class, downy mildew on vine) [1, 10]: L (L shows 50% or less of control values) | Test E (control value class, brown rust on wheat) [2]: H (H shows more than 50% of control values) | Test C (control value class, Alternaria sooty spot on cabbage) [3]: H (H shows more than 50% of control values) | Test D (control value class, powdery mildew on barley) [4]: H (H shows more than 50% of control values) | Test B (control value class, gray mold on tomato) [5]: H (H shows more than 50% of control values)

COc1cc(OC)c(Cl)c(-c2ccc(=O)n(C)c2-c2c(F)cc(OCC(F)F)cc2F)c1 [Compound 338]
Test G control value (downy mildew on vine) ([1]; 7-10 days after inoculation): H (H shows more than 50% of control values) | Test E control value (brown rust on wheat) ([2]; 250 ppm spray): H (H shows more than 50% of control values) | Test C control value (Alternaria sooty spot on cabbage) ([3]; 250 ppm spray): H (H shows more than 50% of control values) | Test D control value (powdery mildew on barley) ([4]; 250 ppm spray): L (L shows 50% or less of control values) | Test B control value (gray mold on tomato) ([5]; 250 ppm spray): H (H shows more than 50% of control values)

CCn1c(-c2c(F)cccc2F)c(-c2cccc(F)c2)cc(Br)c1=O [Compound 155]
Test G control value [1, 11]: L (L shows 50% or less of control values) | Test E control value ([2]; Brown rust on wheat): H (H shows more than 50% of control values) | Test C control value [3]: H (H shows more than 50% of control values) | Test D control value ([4]; Powdery mildew on barley): H (H shows more than 50% of control values) | Test B control value ([5]; Gray mold on tomato): H (H shows more than 50% of control values)

CCn1c(-c2c(F)cccc2F)c(-c2cccc(C(F)(F)F)c2)cc(Cl)c1=O [Compound 299]
Test G control value (downy mildew on vine) ([1]; 7-10 days after inoculation): L (L shows 50% or less of control values) | Test E control value (brown rust on wheat) ([2]; 250 ppm spray): H (H shows more than 50% of control values) | Test C control value (Alternaria sooty spot on cabbage) ([3]; 250 ppm spray): H (H shows more than 50% of control values) | Test D control value (powdery mildew on barley) ([4]; 250 ppm spray): H (H shows more than 50% of control values) | Test B control value (gray mold on tomato) ([5]; 250 ppm spray): H (H shows more than 50% of control values)

CCn1c(-c2c(F)cccc2Cl)c(-c2cc(OC)cc(OC)c2Cl)ccc1=O [Compound 152]
Test G control value [1, 11]: H (H shows more than 50% of control values) | Test E control value ([2]; Brown rust on wheat): H (H shows more than 50% of control values) | Test C control value [3]: H (H shows more than 50% of control values) | Test D control value ([4]; Powdery mildew on barley): H (H shows more than 50% of control values) | Test B control value ([5]; Gray mold on tomato): H (H shows more than 50% of control values)

CCn1c(-c2c(F)cc(OC)cc2F)c(-c2cc(OC)cc(OC)c2Cl)ccc1=O [Compound 716]
Test G (control value class, downy mildew on vine) [1, 10]: H (H shows more than 50% of control values) | Test E (control value class, brown rust on wheat) [2]: H (H shows more than 50% of control values) | Test C (control value class, Alternaria sooty spot on cabbage) [3]: H (H shows more than 50% of control values) | Test D (control value class, powdery mildew on barley) [4]: H (H shows more than 50% of control values) | Test B (control value class, gray mold on tomato) [5]: H (H shows more than 50% of control values)

CCn1c(-c2c(F)cccc2F)c(-c2cc(OCSC)ccc2Cl)ccc1=O [Compound 305]
Test G control value (downy mildew on vine) ([1]; 7-10 days after inoculation): L (L shows 50% or less of control values) | Test E control value (brown rust on wheat) ([2]; 250 ppm spray): H (H shows more than 50% of control values) | Test C control value (Alternaria sooty spot on cabbage) ([3]; 250 ppm spray): H (H shows more than 50% of control values) | Test D control value (powdery mildew on barley) ([4]; 250 ppm spray): H (H shows more than 50% of control values) | Test B control value (gray mold on tomato) ([5]; 250 ppm spray): H (H shows more than 50% of control values)

CCn1c(-c2c(F)cccc2F)c(-c2cc(OCOC)ccc2Cl)ccc1=O [Compound 97, 5-(2-chloro-5-(methoxymethoxy)phenyl)-6-(2,6-difluorophenyl)-1-ethylpyridine-2(1H)-one]
Test G control value [1, 11]: H (H shows more than 50% of control values) | Test E control value ([2]; Brown rust on wheat): H (H shows more than 50% of control values) | Test C control value [3]: H (H shows more than 50% of control values) | Test D control value ([4]; Powdery mildew on barley): H (H shows more than 50% of control values) | Test B control value ([5]; Gray mold on tomato): H (H shows more than 50% of control values)

Cn1c(-c2c(F)cccc2F)c(-c2cc(Cl)ccc2F)cc(Cl)c1=O [Compound 525]
Test G (control value class) [1, 6]: L (L shows 50% or less of control values) | Test E (control value class) [2, 7]: H (H shows more than 50% of control values) | Test C (control value class) ([3]; 250 ppm spray): L (L shows 50% or less of control values) | Test D (control value class) [4, 8]: L (L shows 50% or less of control values) | Test B (control value class) [5, 9]: H (H shows more than 50% of control values)

CCn1c(-c2c(F)cccc2F)c(-c2cc(OCC#N)ccc2Cl)ccc1=O [Compound 98]
Test G control value [1, 11]: H (H shows more than 50% of control values) | Test E control value ([2]; Brown rust on wheat): H (H shows more than 50% of control values) | Test C control value [3]: H (H shows more than 50% of control values) | Test D control value ([4]; Powdery mildew on barley): H (H shows more than 50% of control values) | Test B control value ([5]; Gray mold on tomato): H (H shows more than 50% of control values)

CCn1c(-c2c(F)cc(F)cc2F)c(-c2cc(OCC#N)ccc2Cl)cc(Cl)c1=O [Compound 794]
Test G (control value class) [1, 12]: H (H shows more than 50% of control values) | Test E (control value class) [2, 13]: H (H shows more than 50% of control values) | Test C (control value class) ([3]; control value=100{1-(n/3)}): H (H shows more than 50% of control values) | Test D (control value class) [4, 14]: H (H shows more than 50% of control values) | Test B (control value class) [5, 15]: H (H shows more than 50% of control values)

COc1cc(OC)cc(-c2ccc(=O)n(C)c2-c2c(F)cccc2Br)c1 [Compound 183]
Test G control value [1, 11]: L (L shows 50% or less of control values) | Test E control value ([2]; Brown rust on wheat): H (H shows more than 50% of control values) | Test C control value [3]: L (L shows 50% or less of control values) | Test D control value ([4]; Powdery mildew on barley): L (L shows 50% or less of control values) | Test B control value ([5]; Gray mold on tomato): H (H shows more than 50% of control values)

CCn1c(-c2c(F)cc(OC)cc2F)c(-c2cc(OC)ccc2Cl)cc(C)c1=O [Compound 771]
Test G (control value class) [1, 12]: H (H shows more than 50% of control values) | Test E (control value class) [2, 13]: H (H shows more than 50% of control values) | Test C (control value class) ([3]; control value=100{1-(n/3)}): H (H shows more than 50% of control values) | Test D (control value class) [4, 14]: H (H shows more than 50% of control values) | Test B (control value class) [5, 15]: H (H shows more than 50% of control values)

CCn1c(-c2c(F)cc(OC)cc2F)c(-c2cc(OC)cc(F)c2Cl)cc(Cl)c1=O [Compound 627]
Test G (control value class, downy mildew on vine) [1, 10]: L (L shows 50% or less of control values) | Test E (control value class, brown rust on wheat) [2]: H (H shows more than 50% of control values) | Test C (control value class, Alternaria sooty spot on cabbage) [3]: H (H shows more than 50% of control values) | Test D (control value class, powdery mildew on barley) [4]: H (H shows more than 50% of control values) | Test B (control value class, gray mold on tomato) [5]: H (H shows more than 50% of control values)
